Laboratory results published in the supplement of paper PMC8728848.
The other results are listed elsewhere or left out.

Tests used:
Assay in all cases: glycan array binding signal (z-score within array); higher = stronger binding
Conditions in all cases: glycan notation: IUPAC condensed, linker removed
[1] = target: Gal(b1-4)GlcNAc(b1-2)[Gal(b1-4)GlcNAc(b1-6)]Man(a1-6)[GlcNAc(b1-4)][Gal(b1-4)GlcNAc(b1-2)Man(a1-3)]Man(b1-4)GlcNAc(b1-4)GlcNAc
Method in brief: (§1)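 Glycan array data came from 3228 arrays in the Consortium for Functional Glycomics database, and only arrays with an available protein sequence were kept. Glycan names were put into IUPAC-condensed notation, and columns mapping to the same glycan were averaged. The binding signal is a within-array Z-score, averaged across arrays of one protein sequence run at different concentrations or buffers and across linkers. A negative Z-score can be read as non-binding.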

[2] = target: Gal(b1-4)GlcNAc(b1-2)[Gal(b1-4)GlcNAc(b1-6)]Man(a1-6)[GlcNAc(b1-4)][Gal(b1-4)GlcNAc(b1-2)[Gal(b1-4)GlcNAc(b1-4)]Man(a1-3)]Man(b1-4)GlcNAc(b1-4)[Fuc(a1-6)]GlcNAc
Method in brief: as §1

[3] = target: Gal(b1-4)GlcNAc(b1-3)Gal(b1-3)GalNAc
Method in brief: as §1

[4] = target: Gal(b1-4)GlcNAc(b1-3)Gal(b1-3)GlcNAc
Method in brief: as §1

[5] = target: Gal(b1-4)GlcNAc(b1-3)Gal(b1-4)Glc
Method in brief: as §1

[6] = target: Gal(b1-4)GlcNAc(b1-3)Gal(b1-4)GlcNAc
Method in brief: as §1

[7] = target: Gal(b1-4)GlcNAc(b1-3)Gal(b1-4)GlcNAc(b1-2)Man(a1-3)[Gal(b1-4)GlcNAc(b1-3)Gal(b1-4)GlcNAc(b1-2)Man(a1-6)]Man(b1-4)GlcNAc(b1-4)GlcNAc
Method in brief: as §1

[8] = target: Gal(b1-4)GlcNAc(b1-3)Gal(b1-4)GlcNAc(b1-2)Man(a1-3)[Gal(b1-4)GlcNAc(b1-3)Gal(b1-4)GlcNAc(b1-2)Man(a1-6)]Man(b1-4)GlcNAc(b1-4)[Fuc(a1-6)]GlcNAc
Method in brief: as §1

[9] = target: Gal(b1-4)GlcNAc(b1-3)Gal(b1-4)GlcNAc(b1-2)[Gal(b1-4)GlcNAc(b1-3)Gal(b1-4)GlcNAc(b1-6)]Man(a1-6)[Gal(b1-4)GlcNAc(b1-3)Gal(b1-4)GlcNAc(b1-2)Man(a1-3)]Man(b1-4)GlcNAc(b1-4)GlcNAc
Method in brief: as §1

[10] = target: Gal(b1-4)GlcNAc(b1-3)Gal(b1-4)GlcNAc(b1-2)[Gal(b1-4)GlcNAc(b1-3)Gal(b1-4)GlcNAc(b1-6)]Man(a1-6)[Gal(b1-4)GlcNAc(b1-3)Gal(b1-4)GlcNAc(b1-2)Man(a1-3)]Man(b1-4)GlcNAc(b1-4)[Fuc(a1-6)]GlcNAc
Method in brief: as §1

[11] = target: Gal(b1-4)GlcNAc(b1-3)Gal(b1-4)GlcNAc(b1-3)Gal(b1-4)GlcNAc
Method in brief: as §1

[12] = target: Gal(b1-4)GlcNAc(b1-3)Gal(b1-4)GlcNAc(b1-3)Gal(b1-4)GlcNAc(b1-2)Man(a1-3)[Gal(b1-4)GlcNAc(b1-3)Gal(b1-4)GlcNAc(b1-3)Gal(b1-4)GlcNAc(b1-2)Man(a1-6)]Man(b1-4)GlcNAc(b1-4)GlcNAc
Method in brief: as §1

[13] = target: Gal(b1-4)GlcNAc(b1-3)Gal(b1-4)GlcNAc(b1-3)Gal(b1-4)GlcNAc(b1-2)Man(a1-3)[Gal(b1-4)GlcNAc(b1-3)Gal(b1-4)GlcNAc(b1-3)Gal(b1-4)GlcNAc(b1-2)Man(a1-6)]Man(b1-4)GlcNAc(b1-4)[Fuc(a1-6)]GlcNAc
Method in brief: as §1

[14] = target: Gal(b1-4)GlcNAc(b1-3)Gal(b1-4)GlcNAc(b1-3)Gal(b1-4)GlcNAc(b1-2)[Gal(b1-4)GlcNAc(b1-3)Gal(b1-4)GlcNAc(b1-3)Gal(b1-4)GlcNAc(b1-6)]Man(a1-6)[Gal(b1-4)GlcNAc(b1-3)Gal(b1-4)GlcNAc(b1-3)Gal(b1-4)GlcNAc(b1-2)Man(a1-3)]Man(b1-4)GlcNAc(b1-4)[Fuc(a1-6)]GlcNAc
Method in brief: as §1

[15] = target: Gal(b1-4)GlcNAc(b1-3)Gal(b1-4)GlcNAc(b1-3)Gal(b1-4)GlcNAc(b1-3)Gal(b1-4)GlcNAc(b1-2)Man(a1-3)[Gal(b1-4)GlcNAc(b1-3)Gal(b1-4)GlcNAc(b1-3)Gal(b1-4)GlcNAc(b1-3)Gal(b1-4)GlcNAc(b1-2)Man(a1-6)]Man(b1-4)GlcNAc(b1-4)GlcNAc
Method in brief: as §1

[16] = target: Gal(b1-4)GlcNAc(b1-3)Gal(b1-4)GlcNAc(b1-3)Gal(b1-4)GlcNAc(b1-3)Gal(b1-4)GlcNAc(b1-2)Man(a1-3)[Gal(b1-4)GlcNAc(b1-3)Gal(b1-4)GlcNAc(b1-3)Gal(b1-4)GlcNAc(b1-3)Gal(b1-4)GlcNAc(b1-2)Man(a1-6)]Man(b1-4)GlcNAc(b1-4)[Fuc(a1-6)]GlcNAc
Method in brief: as §1

[17] = target: Gal(b1-4)GlcNAc(b1-3)Gal(b1-4)GlcNAc(b1-3)Gal(b1-4)GlcNAc(b1-3)Gal(b1-4)GlcNAc(b1-2)[Gal(b1-4)GlcNAc(b1-3)Gal(b1-4)GlcNAc(b1-3)Gal(b1-4)GlcNAc(b1-3)Gal(b1-4)GlcNAc(b1-6)]Man(a1-6)[Gal(b1-4)GlcNAc(b1-3)Gal(b1-4)GlcNAc(b1-3)Gal(b1-4)GlcNAc(b1-3)Gal(b1-4)GlcNAc(b1-2)Man(a1-3)]Man(b1-4)GlcNAc(b1-4)[Fuc(a1-6)]GlcNAc
Method in brief: as §1

[18] = target: Gal(b1-4)GlcNAc(b1-3)Gal(b1-4)GlcNAc(b1-3)Gal(b1-4)GlcNAc(b1-3)Gal(b1-4)GlcNAc(b1-3)Gal(b1-4)GlcNAc(b1-2)Man(a1-3)[Gal(b1-4)GlcNAc(b1-3)Gal(b1-4)GlcNAc(b1-3)Gal(b1-4)GlcNAc(b1-3)Gal(b1-4)GlcNAc(b1-3)Gal(b1-4)GlcNAc(b1-2)Man(a1-6)]Man(b1-4)GlcNAc(b1-4)GlcNAc
Method in brief: as §1

[19] = target: Gal(b1-4)GlcNAc(b1-3)Gal(b1-4)GlcNAc(b1-3)Gal(b1-4)GlcNAc(b1-3)Gal(b1-4)GlcNAc(b1-3)Gal(b1-4)GlcNAc(b1-2)Man(a1-3)[Gal(b1-4)GlcNAc(b1-3)Gal(b1-4)GlcNAc(b1-3)Gal(b1-4)GlcNAc(b1-3)Gal(b1-4)GlcNAc(b1-3)Gal(b1-4)GlcNAc(b1-2)Man(a1-6)]Man(b1-4)GlcNAc(b1-4)[Fuc(a1-6)]GlcNAc
Method in brief: as §1

[20] = target: Gal(b1-4)GlcNAc(b1-3)Gal(b1-4)GlcNAc(b1-3)Gal(b1-4)GlcNAc(b1-3)Gal(b1-4)GlcNAc(b1-3)Gal(b1-4)GlcNAc(b1-2)[Gal(b1-4)GlcNAc(b1-3)Gal(b1-4)GlcNAc(b1-3)Gal(b1-4)GlcNAc(b1-3)Gal(b1-4)GlcNAc(b1-3)Gal(b1-4)GlcNAc(b1-6)]Man(a1-6)[Gal(b1-4)GlcNAc(b1-3)Gal(b1-4)GlcNAc(b1-3)Gal(b1-4)GlcNAc(b1-3)Gal(b1-4)GlcNAc(b1-3)Gal(b1-4)GlcNAc(b1-2)Man(a1-3)]Man(b1-4)GlcNAc(b1-4)[Fuc(a1-6)]GlcNAc
Method in brief: as §1

[21] = target: Gal(b1-4)GlcNAc(b1-3)Gal(b1-4)GlcNAc(b1-3)Gal(b1-4)GlcNAc(b1-3)Gal(b1-4)GlcNAc(b1-3)Gal(b1-4)GlcNAc(b1-3)Gal(b1-4)GlcNAc(b1-2)Man(a1-3)[Gal(b1-4)GlcNAc(b1-3)Gal(b1-4)GlcNAc(b1-3)Gal(b1-4)GlcNAc(b1-3)Gal(b1-4)GlcNAc(b1-3)Gal(b1-4)GlcNAc(b1-3)Gal(b1-4)GlcNAc(b1-2)Man(a1-6)]Man(b1-4)GlcNAc(b1-4)GlcNAc
Method in brief: as §1

[22] = target: Gal(b1-4)GlcNAc(b1-3)Gal(b1-4)GlcNAc(b1-3)GalNAc
Method in brief: as §1

[23] = target: Gal(b1-4)GlcNAc(b1-3)Gal(b1-4)GlcNAc(b1-3)[Gal(b1-4)GlcNAc(b1-3)Gal(b1-4)GlcNAc(b1-6)]GalNAc
Method in brief: as §1

[24] = target: Gal(b1-4)GlcNAc(b1-3)Gal(b1-4)GlcNAc(b1-6)[Gal(b1-3)]GalNAc
Method in brief: as §1

[25] = target: Gal(b1-4)GlcNAc(b1-3)Gal(b1-4)[Fuc(a1-3)]GlcNAc(b1-3)Gal(b1-4)[Fuc(a1-3)]GlcNAc
Method in brief: as §1

[26] = target: Gal(b1-4)GlcNAc(b1-3)GalNAc
Method in brief: as §1

[27] = target: Gal(b1-4)GlcNAc(b1-3)[Fuc(a1-3)GlcNAc(b1-6)]Gal(b1-4)Glc
Method in brief: as §1

[28] = target: Gal(b1-4)GlcNAc(b1-3)[Gal(b1-4)GlcNAc(b1-6)]Gal(b1-4)GlcNAc
Method in brief: as §1

[29] = target: Gal(b1-4)GlcNAc(b1-3)[GlcNAc(b1-6)]Gal(b1-4)GlcNAc
Method in brief: as §1

[30] = target: Gal(b1-4)GlcNAc(b1-6)Gal(b1-4)GlcNAc
Method in brief: as §1

[31] = target: Gal(b1-4)GlcNAc(b1-6)GalNAc
Method in brief: as §1

[32] = target: Gal(b1-4)GlcNAc(b1-6)[Gal(b1-3)]GalNAc
Method in brief: as §1

[33] = target: Gal(b1-4)GlcNAc(b1-6)[Gal(b1-4)GlcNAc(b1-3)]GalNAc
Method in brief: as §1

[34] = target: Gal(b1-4)GlcNAc6P
Method in brief: as §1

[35] = target: Gal(b1-6)Gal
Method in brief: as §1

[36] = target: Gal3S(b1-3)GalNAc
Method in brief: as §1

[37] = target: Gal3S(b1-3)GlcNAc
Method in brief: as §1

[38] = target: Gal3S(b1-3)[Fuc(a1-4)]GlcNAc
Method in brief: as §1

B1: Cohesin-hDECTIN-1 (Homo sapiens) (protein)
chain: LDITSHHHHHHDDLDAVRIKVDTVNAKPGDTVRIPVRFSGIPSKGIANCDFVYSYDPNVLEIIEIEPGDIIVDPNPDKSFDTAVYPDRKIIVFLFAEDSGTGAYAITKDGVFATIVAKVKEGAPNGLSVIKFVEVGGFANNDLVEQKTQFFDGGVNVGDTTEPATPTTPVTTPTTTDDLDAASSSPCPPNWIIYEKSCYLFSMSLNSWDGSKRQCWQLGSNLLKIDSSNELGFIVKQVSSQPDNSFWIGLSRPQTEVPWLWEDGSTFSSNLFQIRTTATQENPSPNCVWIHVSVIYDQLCSVPSYSICEKKFM
glycan array binding signal (z-score) [1]: -0.519
glycan array binding signal (z-score) [2]: -0.228
glycan array binding signal (z-score) [3]: -0.361
glycan array binding signal (z-score) [4]: -0.261
glycan array binding signal (z-score) [5]: -0.403
glycan array binding signal (z-score) [6]: -0.182
glycan array binding signal (z-score) [7]: 2.71
glycan array binding signal (z-score) [8]: 0.966
glycan array binding signal (z-score) [9]: 0.801
glycan array binding signal (z-score) [10]: 0.231
glycan array binding signal (z-score) [11]: -0.489
glycan array binding signal (z-score) [12]: 0.563
glycan array binding signal (z-score) [13]: -0.009
glycan array binding signal (z-score) [14]: 0.446
glycan array binding signal (z-score) [15]: 0.569
glycan array binding signal (z-score) [16]: 1.23
glycan array binding signal (z-score) [17]: 0.658
glycan array binding signal (z-score) [18]: 0.502
glycan array binding signal (z-score) [19]: 0.463
glycan array binding signal (z-score) [20]: 0.788
glycan array binding signal (z-score) [21]: -0.346
glycan array binding signal (z-score) [22]: -0.199
glycan array binding signal (z-score) [23]: -0.226
glycan array binding signal (z-score) [24]: -0.192
glycan array binding signal (z-score) [25]: -0.306
glycan array binding signal (z-score) [26]: -0.418
glycan array binding signal (z-score) [27]: -0.37
glycan array binding signal (z-score) [28]: -0.5
glycan array binding signal (z-score) [29]: -0.258
glycan array binding signal (z-score) [30]: -0.034
glycan array binding signal (z-score) [31]: 2.15
glycan array binding signal (z-score) [32]: -0.138
glycan array binding signal (z-score) [33]: -0.242
glycan array binding signal (z-score) [34]: -0.293
glycan array binding signal (z-score) [35]: -0.263
glycan array binding signal (z-score) [36]: -0.147
glycan array binding signal (z-score) [37]: 0.063
glycan array binding signal (z-score) [38]: -0.091
